Source: the antibiotic and cytotoxicity screens of Wong et al. (2023)
This is one part of the list.

System: HepG2
Assay: cytotoxicity call (relative viability < 0.9)
Conditions: 10 µM

Q: Which cytotoxicity call does the source give for C[C@@H]1CCCCO[C@@H](CN(C)C(=O)Nc2ccccc2)[C@@H](C)CN([C@@H](C)CO)C(=O)c2cc(NS(=O)(=O)c3ccc(Cl)cc3)ccc2O1 here?
A: inactive

Q: How did the cytotoxicity call turn out when Cc1ccc(S(=O)(=O)Nc2ccc3c(c2)C(=O)N([C@@H](C)CO)C[C@H](C)[C@H](CN(C)Cc2ccc(C(=O)O)cc2)OCCCC[C@H](C)O3)cc1 was run?
A: inactive

Q: With C=CCN(Cc1ccccc1)C(=O)[C@@H]1N(c2c(Cl)cccc2CO)C(=O)[C@@H]2[C@H](C(=O)O)[C@@H]3C=C[C@@]21O3 as the compound, how does the cytotoxicity call read?
A: inactive

Q: Cc1noc(C)c1S(=O)(=O)Nc1ccc2c(c1)CC(=O)N([C@H](C)CO)C[C@H](C)[C@H](CN(C)S(=O)(=O)c1c(C)noc1C)O2 was tested. Which cytotoxicity call did it give?
A: inactive

Q: For O=c1c(O)c(O)cc2cccc(O)c(O)c1-2, which cytotoxicity call is on record?
A: active

Q: Which cytotoxicity call does the source give for C[C@@H]1CN([C@H](C)CO)S(=O)(=O)c2ccc(C#Cc3ccncc3)cc2O[C@H]1CN(C)C(=O)C1CCCCC1 here?
A: active

Q: CC(C)C[C@@](O)(CC(=O)O)C(=O)O was tested. Which cytotoxicity call did it give?
A: inactive

Q: Which cytotoxicity call does the source give for CC(C)(C)[S@](=O)N1Cc2cc(C(=O)NC3CCCCC3)nc(-c3cccc(Br)c3)c2[C@@H]1CCO here?
A: inactive

Q: O=C(C[C@@H]1CC[C@H]2[C@@H](COC[C@@H](O)CN2C(=O)c2ccccc2F)O1)N1CCN(c2ccccc2)CC1 was tested. Which cytotoxicity call did it give?
A: inactive

Q: C[C@H]1CN([C@@H](C)CO)C(=O)CCCn2cc(nn2)CO[C@H]1CN(C)C(=O)c1cc(-c2ccccc2)on1 was tested. Which cytotoxicity call did it give?
A: inactive

Q: Which cytotoxicity call does the source give for Nc1ccc(CCNc2ncnc3c2ncn3[C@@H]2O[C@H](CO)[C@@H](O)[C@H]2O)cc1 here?
A: inactive

Q: How did the cytotoxicity call turn out when C[C@@H]1CN([C@@H](C)CO)S(=O)(=O)c2ccc(C#Cc3cccnc3)cc2O[C@H]1CN(C)CC1CCCC1 was run?
A: inactive

Q: Which cytotoxicity call does the source give for C[C@@H]1CN([C@H](C)CO)S(=O)(=O)c2ccc(C#CC3CC3)cc2O[C@@H]1CN(C)C(=O)c1cccc(F)c1 here?
A: inactive

Q: For N=C(N)c1ccc(OCCCCCOc2ccc(C(=N)N)cc2)cc1.O=S(=O)(O)CCO.O=S(=O)(O)CCO, which cytotoxicity call is on record?
A: active

Q: Which cytotoxicity call does the source give for CC(C)NC(=O)N(C)C[C@@H]1Oc2ccc(NC(=O)Nc3ccc4c(c3)OCO4)cc2C(=O)N([C@@H](C)CO)C[C@@H]1C here?
A: active

Q: Which cytotoxicity call does the source give for CNCc1n[nH]c2c1CCC2 here?
A: inactive

Q: C[C@H](CO)N1C[C@H](C)[C@@H](CN(C)C(=O)Nc2cccc(F)c2)Oc2ncc(Br)cc2C1=O was tested. Which cytotoxicity call did it give?
A: inactive

Q: Which cytotoxicity call does the source give for C[C@H](CO)N1C[C@H](C)[C@H](CN(C)C(=O)Nc2ccc3c(c2)OCCO3)OCc2cnnn2CCCC1=O here?
A: inactive

Q: How did the cytotoxicity call turn out when COC(=O)CCCCCCC(=O)N/N=C/[C@H](O)[C@@H](O)[C@H](O[C@@H]1O[C@H](CO)[C@H](O)[C@H](O)[C@H]1O)[C@H](O)CO was run?
A: inactive

Q: How did the cytotoxicity call turn out when O=C(C[C@H]1CC[C@H]2[C@@H](COC[C@H](O)CN2C(=O)c2cnccn2)O1)NCc1ccc(Oc2ccccc2)cc1 was run?
A: inactive

Q: With O=C(Cc1ccncc1)NCC[C@@H]1CC[C@@H](NC(=O)C2CCOCC2)[C@H](CO)O1 as the compound, how does the cytotoxicity call read?
A: inactive

Q: Which cytotoxicity call does the source give for OCCN1C[C@@H](O)[C@@H](O)[C@@H](O)[C@@H]1CO here?
A: inactive

Q: CCCC(=O)Nc1ccc2c(c1)C(=O)N(C)C[C@@H](OC)[C@H](C)CN(Cc1ccc(-c3ccccn3)cc1)[C@@H](C)CO2 was tested. Which cytotoxicity call did it give?
A: inactive

Q: How did the cytotoxicity call turn out when C[C@@H]1CN([C@H](C)CO)C(=O)Cc2cc(NS(=O)(=O)c3ccccc3)ccc2O[C@H]1CN(C)CC1CC1 was run?
A: inactive

Q: How did the cytotoxicity call turn out when C[C@@H]1CCCCO[C@H](CN(C)CC2CC2)[C@H](C)CN([C@@H](C)CO)C(=O)c2cc(NC(=O)CCC(F)(F)F)ccc2O1 was run?
A: inactive

Q: For Cc1ccc(S(=O)(=O)N(C)C[C@H]2Oc3ccc(NS(=O)(=O)c4c(C)noc4C)cc3CC(=O)N([C@@H](C)CO)C[C@@H]2C)cc1, which cytotoxicity call is on record?
A: inactive

Q: C[C@@H]1CCCCO[C@H](CN(C)C(=O)Nc2ccc(F)cc2)[C@H](C)CN([C@@H](C)CO)C(=O)c2cc(NS(=O)(=O)c3ccc(Cl)cc3)ccc2O1 was tested. Which cytotoxicity call did it give?
A: inactive

Q: For C[C@@H]1CN([C@@H](C)CO)C(=O)c2cc(NC(=O)C3CCCCC3)ccc2O[C@@H](C)CCCCO[C@H]1CN(C)C(=O)c1ccncc1, which cytotoxicity call is on record?
A: inactive

Q: Cc1noc(C)c1S(=O)(=O)Nc1ccc2c(c1)C(=O)N([C@H](C)CO)C[C@H](C)[C@@H](CN(C)CC1CCCCC1)OCCCC[C@H](C)O2 was tested. Which cytotoxicity call did it give?
A: inactive

Q: For CC(C)NC(=O)Nc1ccc2c(c1)CC(=O)N([C@@H](C)CO)C[C@@H](C)[C@H](CN(C)C(=O)Nc1ccc3c(c1)OCO3)O2, which cytotoxicity call is on record?
A: inactive

Q: For Cc1ccc(S(=O)(=O)Nc2ccc3c(c2)C(=O)N([C@@H](C)CO)C[C@@H](C)[C@H](CN(C)Cc2ccc(C(F)(F)F)cc2)O3)cc1, which cytotoxicity call is on record?
A: inactive

Q: C[C@@H]1CCCCO[C@@H](CN(C)C(=O)Nc2ccccc2)[C@H](C)CN([C@H](C)CO)C(=O)c2cc(NC(=O)c3ccncc3)ccc2O1 was tested. Which cytotoxicity call did it give?
A: inactive

Q: With Cc1cc(O)c2c(c1)Cc1cccc(O)c1C2=O as the compound, how does the cytotoxicity call read?
A: inactive

Q: With O=C(NC1CCC1)[C@H]1[C@H](CO)[C@H]2Cn3c(cccc3=O)[C@H]2N1CC1CCOCC1 as the compound, how does the cytotoxicity call read?
A: inactive

Q: With CN1CCN(C(=O)C[C@@H]2CC[C@H]3[C@@H](COC[C@H](O)CN3Cc3ccc(Oc4ccccc4)cc3)O2)CC1 as the compound, how does the cytotoxicity call read?
A: inactive

Q: With C[C@@H]1CN([C@H](C)CO)C(=O)Cc2cc(NS(=O)(=O)c3ccc(Cl)cc3)ccc2O[C@H]1CN(C)Cc1ccc(Cl)c(Cl)c1 as the compound, how does the cytotoxicity call read?
A: inactive

Q: For N#Cc1ccccc1C#CCO, which cytotoxicity call is on record?
A: inactive

Q: Which cytotoxicity call does the source give for COCC(=O)Nc1ccc2c(c1)C(=O)N(C)C[C@@H](OC)[C@@H](C)CN(C(=O)Cc1ccccn1)[C@H](C)CO2 here?
A: inactive

Q: With COc1cc([C@H]2OC[C@](O)(Cc3ccc(O[C@@H]4O[C@H](CO)[C@@H](O)[C@H](O)[C@H]4O)c(OC)c3)[C@@H]2CO)ccc1O as the compound, how does the cytotoxicity call read?
A: inactive
